Results from PMC9911399, “Two distinct binding modes provide the RNA-binding protein RbFox with extraordinary sequence specificity”.
Changes are numbered by the printed parent chain; changes in the protein carry UniProt numbers. This is one part of the list.

T1: RBFOX1 RRM (Homo sapiens, UniProt Q9NWB1 109-208)
T1 sequence: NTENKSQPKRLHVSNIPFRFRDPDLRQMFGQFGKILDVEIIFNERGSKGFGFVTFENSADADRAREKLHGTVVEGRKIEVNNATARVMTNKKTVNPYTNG

B1: GCUUUAC (DNA:RNA)
RNA: GGGAGACCGGAAUUCAGAUUGUCCGCUUUACUUAAAUCCCGUCGUAGCCACCA
DNA 1: CAATCTGAATTCCGGTCTCCC
DNA 2: TGGTGGCTACGACGGGATT
B2: AAGCCCG (DNA:RNA)
RNA: GGGAGACCGGAAUUCAGAUUGUCCAAGCCCGUUAAAUCCCGUCGUAGCCACCA
DNA 1: CAATCTGAATTCCGGTCTCCC
DNA 2: TGGTGGCTACGACGGGATT
B3: CCAGCAU (DNA:RNA)
RNA: B1 RNA with G25C, U27A, U28G, U29C, C31U
DNA 1: CAATCTGAATTCCGGTCTCCC
DNA 2: TGGTGGCTACGACGGGATT
B4: AAGAUAC (DNA:RNA)
RNA: B2 RNA with C28A, C29U, C30A, G31C
DNA 1: CAATCTGAATTCCGGTCTCCC
DNA 2: TGGTGGCTACGACGGGATT
B5: GAGACAU (DNA:RNA)
RNA: B2 RNA with A25G, C28A, C30A, G31U
DNA 1: CAATCTGAATTCCGGTCTCCC
DNA 2: TGGTGGCTACGACGGGATT
B6: UAGCGAC (DNA:RNA)
RNA: B2 RNA with A25U, C29G, C30A, G31C
DNA 1: CAATCTGAATTCCGGTCTCCC
DNA 2: TGGTGGCTACGACGGGATT
B7: UCAACUA (DNA:RNA)
RNA: B2 RNA with A25U, A26C, G27A, C28A, C30U, G31A
DNA 1: CAATCTGAATTCCGGTCTCCC
DNA 2: TGGTGGCTACGACGGGATT
B8: UGCUCGC (DNA:RNA)
RNA: B1 RNA with G25U, C26G, U27C, U29C, A30G
DNA 1: CAATCTGAATTCCGGTCTCCC
DNA 2: TGGTGGCTACGACGGGATT
B9: CAGACGG (DNA:RNA)
RNA: B2 RNA with A25C, C28A, C30G
DNA 1: CAATCTGAATTCCGGTCTCCC
DNA 2: TGGTGGCTACGACGGGATT
B10: UCAAAAG (DNA:RNA)
RNA: B1 RNA with G25U, U27A, U28A, U29A, C31G
DNA 1: CAATCTGAATTCCGGTCTCCC
DNA 2: TGGTGGCTACGACGGGATT
B11: GCGAUUA (DNA:RNA)
RNA: B1 RNA with U27G, U28A, A30U, C31A
DNA 1: CAATCTGAATTCCGGTCTCCC
DNA 2: TGGTGGCTACGACGGGATT
B12: UACCCAU (DNA:RNA)
RNA: B2 RNA with A25U, G27C, C30A, G31U
DNA 1: CAATCTGAATTCCGGTCTCCC
DNA 2: TGGTGGCTACGACGGGATT
B13: UGAUUUA (DNA:RNA)
RNA: B1 RNA with G25U, C26G, U27A, A30U, C31A
DNA 1: CAATCTGAATTCCGGTCTCCC
DNA 2: TGGTGGCTACGACGGGATT
B14: UUUUUCU (DNA:RNA)
RNA: B1 RNA with G25U, C26U, A30C, C31U
DNA 1: CAATCTGAATTCCGGTCTCCC
DNA 2: TGGTGGCTACGACGGGATT
B15: UCGAUAC (DNA:RNA)
RNA: B1 RNA with G25U, U27G, U28A
DNA 1: CAATCTGAATTCCGGTCTCCC
DNA 2: TGGTGGCTACGACGGGATT
B16: CGAAAGU (DNA:RNA)
RNA: GGGAGACCGGAAUUCAGAUUGUCCCGAAAGUUUAAAUCCCGUCGUAGCCACCA
DNA 1: CAATCTGAATTCCGGTCTCCC
DNA 2: TGGTGGCTACGACGGGATT
B17: GUGUACA (DNA:RNA)
RNA: B2 RNA with A25G, A26U, C28U, C29A, G31A
DNA 1: CAATCTGAATTCCGGTCTCCC
DNA 2: TGGTGGCTACGACGGGATT
B18: AUGUUUC (DNA:RNA)
RNA: B1 RNA with G25A, C26U, U27G, A30U
DNA 1: CAATCTGAATTCCGGTCTCCC
DNA 2: TGGTGGCTACGACGGGATT
B19: GGGUGGG (DNA:RNA)
RNA: B2 RNA with A25G, A26G, C28U, C29G, C30G
DNA 1: CAATCTGAATTCCGGTCTCCC
DNA 2: TGGTGGCTACGACGGGATT
B20: CGUACAG (DNA:RNA)
RNA: B16 RNA with A27U, A29C, G30A, U31G
DNA 1: CAATCTGAATTCCGGTCTCCC
DNA 2: TGGTGGCTACGACGGGATT
B21: GAGAUUG (DNA:RNA)
RNA: B2 RNA with A25G, C28A, C29U, C30U
DNA 1: CAATCTGAATTCCGGTCTCCC
DNA 2: TGGTGGCTACGACGGGATT
B22: UACACGA (DNA:RNA)
RNA: B2 RNA with A25U, G27C, C28A, C30G, G31A
DNA 1: CAATCTGAATTCCGGTCTCCC
DNA 2: TGGTGGCTACGACGGGATT
B23: CACAAUA (DNA:RNA)
RNA: B16 RNA with G26A, A27C, G30U, U31A
DNA 1: CAATCTGAATTCCGGTCTCCC
DNA 2: TGGTGGCTACGACGGGATT
B24: CCCGUUG (DNA:RNA)
RNA: B1 RNA with G25C, U27C, U28G, A30U, C31G
DNA 1: CAATCTGAATTCCGGTCTCCC
DNA 2: TGGTGGCTACGACGGGATT
B25: AAAAAAU (DNA:RNA)
RNA: B16 RNA with C25A, G26A, G30A
DNA 1: CAATCTGAATTCCGGTCTCCC
DNA 2: TGGTGGCTACGACGGGATT
B26: CGCCCAC (DNA:RNA)
RNA: B2 RNA with A25C, A26G, G27C, C30A, G31C
DNA 1: CAATCTGAATTCCGGTCTCCC
DNA 2: TGGTGGCTACGACGGGATT
B27: AGGCCGC (DNA:RNA)
RNA: B2 RNA with A26G, C30G, G31C
DNA 1: CAATCTGAATTCCGGTCTCCC
DNA 2: TGGTGGCTACGACGGGATT
B28: GGCCCAG (DNA:RNA)
RNA: B2 RNA with A25G, A26G, G27C, C30A
DNA 1: CAATCTGAATTCCGGTCTCCC
DNA 2: TGGTGGCTACGACGGGATT
B29: CACCUAU (DNA:RNA)
RNA: B2 RNA with A25C, G27C, C29U, C30A, G31U
DNA 1: CAATCTGAATTCCGGTCTCCC
DNA 2: TGGTGGCTACGACGGGATT
B30: UGUUUUC (DNA:RNA)
RNA: B1 RNA with G25U, C26G, A30U
DNA 1: CAATCTGAATTCCGGTCTCCC
DNA 2: TGGTGGCTACGACGGGATT
B31: AAUCCUC (DNA:RNA)
RNA: B2 RNA with G27U, C30U, G31C
DNA 1: CAATCTGAATTCCGGTCTCCC
DNA 2: TGGTGGCTACGACGGGATT

The binders below were run against T1, RBFOX1 RRM (assay: EMSA; HiTS-Eq, 1 nM pool, 10 min; buffer printed only for the single-RNA assays: 10 mM Tris pH 7.5, 150 mM NaCl, 3.4 mM EDTA, 0.001% NP-40, 30 C). Conditions: tags: His6 N-terminal (pET28a); label: 5' 32P.
Summary of the method: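 Purified RbFox RRM (wild type or mutant) was equilibrated for 10 min in 50 µL with 1 nM of a 5′-radiolabelled pool of RNA with 7 randomized nucleotides, its flanks annealed to DNA oligonucleotides, across increasing protein concentrations. Free RNA was separated by 8% native PAGE, excised, reverse-transcribed, PCR-barcoded and sequenced on an Illumina HiSeq 2500. Relative association constants came from read-count changes of each variant against the control reaction, normalised to the cognate motif.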
For B1, the binding signal was 0.0086 KA relative to UGCAUGU. For B2, the binding signal was 0.00982 KA relative to UGCAUGU. B3 was tested, and the binding signal was 0.00309 KA relative to UGCAUGU. B4 was tested, and the binding signal was 0.00405 KA relative to UGCAUGU. B5 was tested, and the binding signal was 0.00415 KA relative to UGCAUGU. With B6 the binding signal was 0.00297 KA relative to UGCAUGU. In the case of B7, the binding signal is reported as 0.00111 KA relative to UGCAUGU. With B8 the binding signal was 0.027 KA relative to UGCAUGU. B9 was tested, and the binding signal was 0.00484 KA relative to UGCAUGU. B10 was tested, and the binding signal was 0.00687 KA relative to UGCAUGU. With B11 the binding signal was 0.00768 KA relative to UGCAUGU. For B12, the binding signal was 0.00118 KA relative to UGCAUGU. With B13 the binding signal was 0.0154 KA relative to UGCAUGU. B14 was tested, and the binding signal was 0.0117 KA relative to UGCAUGU. B15 was tested, and the binding signal was 0.0082 KA relative to UGCAUGU. For B16, the binding signal was 0.0115 KA relative to UGCAUGU. For B17, the binding signal was 0.00903 KA relative to UGCAUGU. B18 was tested, and the binding signal was 0.0159 KA relative to UGCAUGU. With B19 the binding signal was 0.0201 KA relative to UGCAUGU. In the case of B20, the binding signal is reported as 0.00596 KA relative to UGCAUGU. In the case of B21, the binding signal is reported as 0.019 KA relative to UGCAUGU. In the case of B22, the binding signal is reported as 0.00764 KA relative to UGCAUGU. For B23, the binding signal was 0.00108 KA relative to UGCAUGU. In the case of B24, the binding signal is reported as 0.0197 KA relative to UGCAUGU. For B25, the binding signal was 0.000327 KA relative to UGCAUGU. In the case of B26, the binding signal is reported as 0.00346 KA relative to UGCAUGU. B27 was tested, and the binding signal was 0.0103 KA relative to UGCAUGU. For B28, the binding signal was 0.00726 KA relative to UGCAUGU. With B29 the binding signal was 0.000316 KA relative to UGCAUGU. In the case of B30, the binding signal is reported as 0.0237 KA relative to UGCAUGU. B31 was tested, and the binding signal was 0.00109 KA relative to UGCAUGU.
